Measured values taken from the supplement of paper PMC8728848.
The other results are listed elsewhere or left out.

Experiments:
Assay in all cases: glycan array binding signal (z-score within array); higher = stronger binding
Conditions in all cases: glycan notation: IUPAC condensed, linker removed
[1] = target: Fuc(a1-3)[Gal3S(b1-4)]GlcNAc
How it was run: (§1)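 Glycan array data were curated from 3228 arrays in the Consortium for Functional Glycomics database and kept only where the protein sequence was available. Glycan names were converted to IUPAC-condensed notation, and columns mapping to the same glycan were averaged. The binding signal is a within-array Z-score, averaged across arrays of the same protein sequence at different concentrations or buffers and across linkers. Negative Z-scores can be read as non-binding.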

[2] = target: Fuc(a1-3)[Gal3S(b1-4)]GlcNAc6S
How it was run: as §1

[3] = target: Fuc(a1-3)[GalNAc(b1-4)]GlcNAc
How it was run: as §1

[4] = target: Fuc(a1-3)[GalNAc(b1-4)]GlcNAc6S
How it was run: as §1

Fuc(a1-4)GlcNAc = target: Fuc(a1-4)GlcNAc
How it was run: as §1

Fuc(b1-3)GlcNAc = target: Fuc(b1-3)GlcNAc
How it was run: as §1

Gal(a1-2)Gal = target: Gal(a1-2)Gal
How it was run: as §1

Gal(a1-3)Gal = target: Gal(a1-3)Gal
How it was run: as §1

Gal(a1-3)Gal(b1-3)GlcNAc = target: Gal(a1-3)Gal(b1-3)GlcNAc
How it was run: as §1

[5] = target: Gal(a1-3)Gal(b1-3)GlcNAc(b1-2)Man
How it was run: as §1

[6] = target: Gal(a1-3)Gal(b1-3)GlcNAc(b1-2)Man(a1-3)[Gal(a1-3)Gal(b1-3)GlcNAc(b1-2)Man(a1-6)]Man(b1-4)GlcNAc(b1-4)GlcNAc
How it was run: as §1

[7] = target: Gal(a1-3)Gal(b1-3)GlcNAc(b1-3)GalNAc
How it was run: as §1

[8] = target: Gal(a1-3)Gal(b1-3)GlcNAc(b1-6)GalNAc
How it was run: as §1

[9] = target: Gal(a1-3)Gal(b1-3)[Fuc(a1-4)]GlcNAc(b1-2)Man(a1-3)[Gal(a1-3)Gal(b1-3)[Fuc(a1-4)]GlcNAc(b1-2)Man(a1-6)]Man(b1-4)GlcNAc(b1-4)GlcNAc
How it was run: as §1

Gal(a1-3)Gal(b1-4)Glc = target: Gal(a1-3)Gal(b1-4)Glc
How it was run: as §1

Gal(a1-3)Gal(b1-4)GlcNAc = target: Gal(a1-3)Gal(b1-4)GlcNAc
How it was run: as §1

[10] = target: Gal(a1-3)Gal(b1-4)GlcNAc(b1-2)Man
How it was run: as §1

[11] = target: Gal(a1-3)Gal(b1-4)GlcNAc(b1-2)Man(a1-3)[Gal(a1-3)Gal(b1-4)GlcNAc(b1-2)Man(a1-6)]Man(b1-4)GlcNAc(b1-4)GlcNAc
How it was run: as §1

[12] = target: Gal(a1-3)Gal(b1-4)GlcNAc(b1-3)GalNAc
How it was run: as §1

[13] = target: Gal(a1-3)Gal(b1-4)GlcNAc(b1-6)GalNAc
How it was run: as §1

[14] = target: Gal(a1-3)Gal(b1-4)[Fuc(a1-3)]GlcNAc
How it was run: as §1

[15] = target: Gal(a1-3)Gal(b1-4)[Fuc(a1-3)]GlcNAc(b1-2)Man(a1-3)[Gal(a1-3)Gal(b1-4)[Fuc(a1-3)]GlcNAc(b1-2)Man(a1-6)]Man(b1-4)GlcNAc(b1-4)GlcNAc
How it was run: as §1

Gal(a1-3)GalNAc = target: Gal(a1-3)GalNAc
How it was run: as §1

[16] = target: Gal(a1-3)[Gal(a1-4)]Gal(b1-4)GlcNAc
How it was run: as §1

[17] = target: Gal(a1-4)Gal(b1-3)GlcNAc(b1-2)Man(a1-3)[Gal(a1-4)Gal(b1-3)GlcNAc(b1-2)Man(a1-6)]Man(b1-4)GlcNAc(b1-4)GlcNAc
How it was run: as §1

Gal(a1-4)Gal(b1-4)Glc = target: Gal(a1-4)Gal(b1-4)Glc
How it was run: as §1

Gal(a1-4)Gal(b1-4)GlcNAc = target: Gal(a1-4)Gal(b1-4)GlcNAc
How it was run: as §1

[18] = target: Gal(a1-4)Gal(b1-4)GlcNAc(b1-2)Man(a1-3)[Gal(a1-4)Gal(b1-4)GlcNAc(b1-2)Man(a1-6)]Man(b1-4)GlcNAc(b1-4)GlcNAc
How it was run: as §1

[19] = target: Gal(a1-4)Gal(b1-4)GlcNAc(b1-3)Gal(b1-4)Glc
How it was run: as §1

Gal(a1-4)GlcNAc = target: Gal(a1-4)GlcNAc
How it was run: as §1

Gal(a1-6)Glc = target: Gal(a1-6)Glc
How it was run: as §1

Gal(b1-2)Gal = target: Gal(b1-2)Gal
How it was run: as §1

Gal(b1-3)Gal = target: Gal(b1-3)Gal
How it was run: as §1

Gal(b1-3)Gal(b1-4)GlcNAc = target: Gal(b1-3)Gal(b1-4)GlcNAc
How it was run: as §1

Gal(b1-3)GalNAc = target: Gal(b1-3)GalNAc
How it was run: as §1

[20] = target: Gal(b1-3)GalNAc(a1-3)[Fuc(a1-2)]Gal(b1-4)Glc
How it was run: as §1

[21] = target: Gal(b1-3)GalNAc(a1-3)[Fuc(a1-2)]Gal(b1-4)GlcNAc
How it was run: as §1

B1: Epa23 (Candida glabrata) (protein)
chain: MGSSHHHHHHSSGLVPRGSHMIPNPFEGTINNFPSGCSPNHGLYNRGLTMELYNYSYIHPQSIQSYFNTSTLKKMEKGQCWDPSYLDVNYPRTGYKTHNRFAKVNGIDGILDFEFNPTRSCVPSKGQLPQNYNYPLQFTLSNFTMLLYGYFKPKVTAKHTFTIFADDLLFLNFGAGNAFDCCQQQDTIDDFGNYQAYALWGSDTQQNTLTVNLDANIYYPIRMFYNNRDFKGALNMYFTTDESNTKINDFSGYLFNIPDSSEGCPAHISYETECGNVSG
[1]
  glycan array binding signal (z-score): -0.262
[2]
  glycan array binding signal (z-score): -0.161
[3]
  glycan array binding signal (z-score): -0.199
[4]
  glycan array binding signal (z-score): -0.268
Fuc(a1-4)GlcNAc
  glycan array binding signal (z-score): -0.188
Fuc(b1-3)GlcNAc
  glycan array binding signal (z-score): -0.185
Gal(a1-2)Gal
  glycan array binding signal (z-score): -0.213
Gal(a1-3)Gal
  glycan array binding signal (z-score): 0.097
Gal(a1-3)Gal(b1-3)GlcNAc
  glycan array binding signal (z-score): 0.064
[5]
  glycan array binding signal (z-score): 0.017
[6]
  glycan array binding signal (z-score): -0.178
[7]
  glycan array binding signal (z-score): -0.061
[8]
  glycan array binding signal (z-score): -0.077
[9]
  glycan array binding signal (z-score): -0.161
Gal(a1-3)Gal(b1-4)Glc
  glycan array binding signal (z-score): -0.178
Gal(a1-3)Gal(b1-4)GlcNAc
  glycan array binding signal (z-score): -0.008
[10]
  glycan array binding signal (z-score): -0.156
[11]
  glycan array binding signal (z-score): -0.03
[12]
  glycan array binding signal (z-score): -0.148
[13]
  glycan array binding signal (z-score): 0.125
[14]
  glycan array binding signal (z-score): -0.178
[15]
  glycan array binding signal (z-score): -0.195
Gal(a1-3)GalNAc
  glycan array binding signal (z-score): -0.118
[16]
  glycan array binding signal (z-score): -0.082
[17]
  glycan array binding signal (z-score): -0.081
Gal(a1-4)Gal(b1-4)Glc
  glycan array binding signal (z-score): -0.12
Gal(a1-4)Gal(b1-4)GlcNAc
  glycan array binding signal (z-score): -0.046
[18]
  glycan array binding signal (z-score): 0.003
[19]
  glycan array binding signal (z-score): -0.139
Gal(a1-4)GlcNAc
  glycan array binding signal (z-score): 0.008
Gal(a1-6)Glc
  glycan array binding signal (z-score): -0.007
Gal(b1-2)Gal
  glycan array binding signal (z-score): -0.166
Gal(b1-3)Gal
  glycan array binding signal (z-score): 0.204
Gal(b1-3)Gal(b1-4)GlcNAc
  glycan array binding signal (z-score): 0.685
Gal(b1-3)GalNAc
  glycan array binding signal (z-score): 0.204
[20]
  glycan array binding signal (z-score): 0.036
[21]
  glycan array binding signal (z-score): -0.036
